At least one compound was matched to its structure with a doubt left.
target: T1, Top1 (Homo sapiens, UniProt P11387); assay: Top1-mediated DNA cleavage assay; type: biochemical; conditions: inhibition relative to 1 μM CPT, Table 6
T1 sequence (P11387 1-765): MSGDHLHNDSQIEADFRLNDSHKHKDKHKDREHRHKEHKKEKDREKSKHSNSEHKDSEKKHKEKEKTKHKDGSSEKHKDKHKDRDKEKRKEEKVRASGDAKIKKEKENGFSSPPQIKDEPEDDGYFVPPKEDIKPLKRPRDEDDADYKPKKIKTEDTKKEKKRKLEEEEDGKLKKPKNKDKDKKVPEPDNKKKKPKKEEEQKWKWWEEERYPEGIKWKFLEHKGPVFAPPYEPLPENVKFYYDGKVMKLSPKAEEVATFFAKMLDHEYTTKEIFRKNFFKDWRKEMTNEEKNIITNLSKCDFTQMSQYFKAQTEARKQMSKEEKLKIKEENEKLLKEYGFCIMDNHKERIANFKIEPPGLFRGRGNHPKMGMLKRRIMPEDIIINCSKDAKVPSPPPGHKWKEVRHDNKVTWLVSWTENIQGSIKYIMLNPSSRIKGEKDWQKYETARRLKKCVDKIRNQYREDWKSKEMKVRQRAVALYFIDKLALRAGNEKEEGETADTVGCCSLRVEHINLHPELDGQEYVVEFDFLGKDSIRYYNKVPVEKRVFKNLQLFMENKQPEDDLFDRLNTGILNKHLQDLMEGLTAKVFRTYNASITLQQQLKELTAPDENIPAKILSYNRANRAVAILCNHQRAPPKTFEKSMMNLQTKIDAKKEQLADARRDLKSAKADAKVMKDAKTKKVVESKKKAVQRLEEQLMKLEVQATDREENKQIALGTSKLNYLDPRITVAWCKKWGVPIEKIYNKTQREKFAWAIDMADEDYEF

Q: For `COc1cc2c[n+](CCN(C)C)c3c4cc5c(cc4ccc3c2cc1OC)OCO5` [NTD-191], which Top1 cleavage is on record?
A: +++ (+++ is 75-95%)

Q: `CCN(CC)CC[n+]1cc2cc(OC)c(OC)cc2c2ccc3cc4c(cc3c21)OCO4` [NTD-195] was tested. Which Top1 cleavage did it give?
A: ++ (++ is 50-75%)

Q: For `COc1cc2c(NCCN3CCCC3)nc3c4cc5c(cc4ccc3c2cc1OC)OCO5` [NTD-307], which Top1 cleavage is on record?
A: + (+ is 20-50%)

Q: How did the Top1 cleavage turn out when `COc1cc2c(NCCN3CCNCC3)nc3c4cc5c(cc4ccc3c2cc1OC)OCO5` [NTD-311] was run?
A: + (+ is 20-50%)

Q: Which Top1 cleavage does the source give for `COc1cc2c(OCC(=O)N3CCCC3)nc3c4cc5c(cc4ccc3c2cc1OC)OCO5` [NTD-337] here?
A: 0 (0 is inactive)

Q: With `COc1cc2c(OCC(=O)N3CCCCC3)nc3c4cc5c(cc4ccc3c2cc1OC)OCO5` [NTD-338] as the molecule, how does the Top1 cleavage read?
A: 0 (0 is inactive)

Q: For `COc1cc2c(OCC(=O)O)nc3c4cc5c(cc4ccc3c2cc1OC)OCO5` [NTD-341], which Top1 cleavage is on record?
A: + (+ is 20-50%)

Q: Which Top1 cleavage does the source give for `COc1cc2c(NCCNS(=O)(=O)C(F)(F)F)nc3c4cc5c(cc4ccc3c2cc1OC)OCO5` [NTD-342] here?
A: 0 (0 is inactive)

Q: `COc1cc2c(NCCNS(=O)(=O)N(C)C)nc3c4cc5c(cc4ccc3c2cc1OC)OCO5` [NTD-343] was tested. Which Top1 cleavage did it give?
A: 0 (0 is inactive)

Q: `COc1cc2c(NCCNS(=O)(=O)N3CCOCC3)nc3c4cc5c(cc4ccc3c2cc1OC)OCO5` [NTD-344] was tested. Which Top1 cleavage did it give?
A: 0 (0 is inactive)

Q: Which Top1 cleavage does the source give for `COc1cc2c(OCCCNC3=NCCS3)nc3c4cc5c(cc4ccc3c2cc1OC)OCO5` [NTD-348] here?
A: + (+ is 20-50%)

Q: With `COc1cc2c(OCC(=O)N(C)C)nc3c4cc5c(cc4ccc3c2cc1OC)OCO5` [NTD-351] as the molecule, how does the Top1 cleavage read?
A: + (+ is 20-50%)

Q: `COc1cc2c(OCC(=O)N3CCC3)nc3c4cc5c(cc4ccc3c2cc1OC)OCO5` [NTD-352] was tested. Which Top1 cleavage did it give?
A: ++ (++ is 50-75%)

Q: With `COc1cc2c(OCC(=O)N3CCOCC3)nc3c4cc5c(cc4ccc3c2cc1OC)OCO5` [NTD-353] as the molecule, how does the Top1 cleavage read?
A: 0 (0 is inactive)

Q: For `COc1cc2c(OCC(=O)N3CCCCCC3)nc3c4cc5c(cc4ccc3c2cc1OC)OCO5` [NTD-354], which Top1 cleavage is on record?
A: 0 (0 is inactive)

Q: `COc1cc2c(OCC(=O)N3CC=CC3)nc3c4cc5c(cc4ccc3c2cc1OC)OCO5` [NTD-355] was tested. Which Top1 cleavage did it give?
A: + (+ is 20-50%)

Q: How did the Top1 cleavage turn out when `COc1cc2ccc3c4cc(OC)c(OC)cc4c(=O)n(CCN(C)C)c3c2cc1OC` [TWL-48] was run?
A: 0/+

Q: For `CN(C)CCn1c(=O)c2ccccc2c2ccc3cc(Br)ccc3c21` [TWL-53], which Top1 cleavage is on record?
A: + (+ is 20-50%)

Q: How did the Top1 cleavage turn out when `COc1cc2ccc3c4ccccc4c(=O)n(CCN(C)C)c3c2cc1OC` [TWL-76H] was run?
A: + (+ is 20-50%)

Q: `CN(C)CCn1c(=O)c2c3c(ccc2c2ccc4cc5c(cc4c21)OCO5)OCO3` [TWL-191] was tested. Which Top1 cleavage did it give?
A: + (+ is 20-50%)
